# Results as given in PMC4336329 (PLoS ONE, 2015).
# Out of some 310,000 compounds screened, about 14,000 (4.5%) showed an effect of 50% or more. The effect is printed as a negative number. This is one part of the list.
# Target: human ether-à-go-go-related gene (hERG) potassium channel (human, UniProt Q12809)
# Experiment: primary screen, population patch clamp on CHO cells stably expressing hERG
# 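Note: peak tail current of the secondary pulse compared with the same well before compound.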
# Sequence of human ether-à-go-go-related gene (hERG) potassium channel (Q12809 whole entry, looked up): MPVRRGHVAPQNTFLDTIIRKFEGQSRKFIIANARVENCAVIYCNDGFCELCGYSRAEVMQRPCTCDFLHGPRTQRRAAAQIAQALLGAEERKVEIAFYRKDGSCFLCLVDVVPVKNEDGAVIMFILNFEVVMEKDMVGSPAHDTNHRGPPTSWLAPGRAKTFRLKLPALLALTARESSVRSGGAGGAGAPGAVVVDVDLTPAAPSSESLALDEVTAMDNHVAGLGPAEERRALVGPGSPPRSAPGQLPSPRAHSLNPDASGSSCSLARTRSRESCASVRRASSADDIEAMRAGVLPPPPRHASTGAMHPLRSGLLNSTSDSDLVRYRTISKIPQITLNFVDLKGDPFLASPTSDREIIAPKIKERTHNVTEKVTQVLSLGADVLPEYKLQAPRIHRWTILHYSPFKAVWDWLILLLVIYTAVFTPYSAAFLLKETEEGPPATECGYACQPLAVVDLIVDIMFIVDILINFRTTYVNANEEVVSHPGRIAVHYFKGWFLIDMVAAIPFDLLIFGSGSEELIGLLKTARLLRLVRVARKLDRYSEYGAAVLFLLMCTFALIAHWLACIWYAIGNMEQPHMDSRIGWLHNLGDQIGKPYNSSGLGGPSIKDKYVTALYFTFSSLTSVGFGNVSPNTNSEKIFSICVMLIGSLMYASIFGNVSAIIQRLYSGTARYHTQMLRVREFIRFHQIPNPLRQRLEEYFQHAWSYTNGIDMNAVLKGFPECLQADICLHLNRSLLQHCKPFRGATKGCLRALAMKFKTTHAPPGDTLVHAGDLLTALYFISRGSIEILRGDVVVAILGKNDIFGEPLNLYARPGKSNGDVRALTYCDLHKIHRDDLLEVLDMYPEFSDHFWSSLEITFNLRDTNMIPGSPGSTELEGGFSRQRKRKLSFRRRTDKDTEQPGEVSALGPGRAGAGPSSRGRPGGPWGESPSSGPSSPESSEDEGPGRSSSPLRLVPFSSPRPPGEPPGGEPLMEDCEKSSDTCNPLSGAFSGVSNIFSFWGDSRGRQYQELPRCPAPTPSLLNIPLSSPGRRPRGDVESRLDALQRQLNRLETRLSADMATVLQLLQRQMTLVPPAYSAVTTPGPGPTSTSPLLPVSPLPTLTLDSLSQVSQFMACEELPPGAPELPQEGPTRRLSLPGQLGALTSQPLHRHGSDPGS
row,Structure (SMILES),"hERG current change (%, negative = inhibition) at 10uM"
1,COc1cc2c(cc1OC)-c1cc(NC3CC3)nc(=O)n1CC2,-24.8%
2,c1ccc(-c2ccnc3nc(N4CCN(c5ccccc5)CC4)nn23)cc1,-41.5%
3,CC1CN(C(=O)CCC(=O)NCCCc2ccccc2)c2ccccc2O1 (centres unmarked),-33.8%
4,Nc1nccc(/C=C/c2c(Cl)cccc2Cl)n1,10%
5,Cc1cccc(N2CCN(Cc3cn(C)nc3-c3ccccc3F)CC2)n1,-34.4%
6,CC(=O)NCCC(=O)Nc1cc(S(=O)(=O)N2CCOCC2)ccc1N1CCOCC1,30.9%
7,N/C(=N\OC(=O)c1ccc(Cl)cc1Cl)c1ccccc1,3.8%
8,CSc1ncc(CN2CCCC(C(=O)c3ccccc3SC)C2)cn1 (centres unmarked),-65.1%
9,O=C(COC(=O)c1cccnc1Nc1ccccc1F)NCc1ccc2c(c1)OCO2,-12%
10,CC12CCC(=O)N1C(C(=O)N1CCN(c3cccc(Cl)c3)CC1)CS2 (centres unmarked),-19.4%
11,Cc1nc(NC(=O)COc2ccccc2)sc1C(=O)Nc1ccccc1,-1.5%
12,O=C(Nc1nnc(SCc2cccnc2)s1)C1CC(=O)N(c2ccccc2)C1 (centres unmarked),8.12%
13,CCOc1c2ccc(C(=O)NCc3ccc(OC(F)(F)F)cc3)cc2nn1C,-23.1%
14,CCOC(=O)C(C(=O)OCC)c1c([N+](=O)[O-])c(=O)n2c3c(cccc13)CCC2,-4.13%
15,O=S(=O)(Nc1ccc(Cl)c(Cl)c1)N1CCOCC1,6.44%
16,O=C(NC1CCN(C(=O)c2ccccc2Br)CC1)c1ccccc1,-14.5%
17,N#CCc1ccc(NC(=O)CSc2nnc(C3CC3)n2C2CC2)cc1,9.18%
18,O=C(N/N=C/c1c(F)cccc1Cl)c1ccc(Cn2cc(Br)cn2)o1,-15.6%
19,Cc1c(C)c2ccc(O)c(CN3CCCC3)c2oc1=O,20.8%
20,Cc1cc(C)nc(SCc2cc(=O)c(OC(=O)c3ccco3)co2)n1,9.82%
21,Cc1ccc(NC(=S)NCC2CCN(C(C)c3ccccc3)C2)cc1 (centres unmarked),-57.5%
22,COCO/C=C(\NC(C)=O)c1ccccc1,15%

row,Structure (SMILES),"hERG current change (%, negative = inhibition) at 10uM"
1,Cc1ccc(-n2cccn2)c(CN2CCCC(C(=O)c3sccc3C)C2)c1 (centres unmarked),-85.4%
2,CCn1c(SCC(=O)Nc2ccc(S(=O)(=O)Nc3onc(C)c3C)cc2)nnc1-c1ccccc1,-10.2%
3,COC(=O)COc1ccc(S(=O)(=O)N2CCCCC2)cc1[N+](=O)[O-],11.6%
4,O=C(CSc1nnc2ccccn12)NNC(=O)c1ccc(Br)cc1,17.9%
5,Cc1ccc(Oc2ccc(N)cc2)cc1.Cl,-6.53%
6,O=C(NC(=S)Nc1ccc2oc(=O)ccc2c1)c1cccc(F)c1,15.3%
7,CC(c1nc2ccccc2c(=O)[nH]1)N1CCN(C)CC1 (centres unmarked),-5.2%
8,COc1ccc(C)cc1N(CC(=O)Nc1cccnc1)S(=O)(=O)c1ccc(C)cc1,0.795%
9,CCCCCCCC(=O)OCC(O)CO (centres unmarked),-4.64%
10,O=C1CC(NS(=O)(=O)c2ccccc2)CN1c1ccc2c(c1)OCCO2 (centres unmarked),-1.28%
11,COc1ccc(C)cc1NC(=O)CCCN1C(=O)NC(C)(C)C1=O,6.12%
12,CCN(CC)CCNC(=O)c1ccc(NC(=O)c2ccc(S(=O)(=O)N3CCCCCC3)cc2)cc1,10.9%
13,CSc1ccc(/C=N/NC(=O)c2cccc(Cl)c2)cc1,-1.49%
14,O=C(N/N=C(\Cc1ncc[nH]1)c1ccccc1)c1ccncc1,9.02%
15,CC(CN1CCCCC1)NC(=O)c1cccs1 (centres unmarked),-1.8%
16,CC(C)CCNC(=O)C(=O)Nc1ccc2c(c1)N(S(=O)(=O)c1cccs1)CCC2,9.19%
17,Cn1c(NCCO)nc2c1c(=O)n(Cc1ccc(F)cc1)c(=O)n2C,7.98%
18,CC(=O)Nc1ccc(S(=O)(=O)NCC(=O)OCc2ccccc2)cc1,-3.27%
19,CCN(CC)C(=S)SCC(=O)c1c(C)[nH]c2ccccc12,4.2%
20,Cl.O=C(c1ccc(Cl)c(S(=O)(=O)N2CCCC2)c1)N1CCN(c2ccc(F)cc2)CC1,-58.5%
21,CSc1ccccc1C(=O)NCc1ccc(C)cc1,-3.63%
22,COc1cc(OC)c(C(=O)OCN2C(=O)c3ccccc3C2=O)cc1OC,-19.8%
